{
  "source": "paper PMC9042921",
  "molecules": {"B1": {"name": "endogenous AKIP1 (A kinase interacting protein 1) of HepG2 cells (protein, UniProt Q9NQ31 1-210)", "chain": "MDNCLAAAALNGVDRRSLQRSARLALEVLERAKRRAVDWHALERPKGCMGVLAREAPHLEKQPAAGPQRVLPGEREERPPTLSASFRTMAEFMDYTSSQCGKYYSSVPEEGGATHVYRYHRGESKLHMCLDIGNGQRKDRKKTSLGPGGSYQISEHAPEASQPAENISKDLYIEVYPGTYSVTVGSNDLTKKTHVVAVDSGQSVDLVFPV"}, "B2": {"name": "Myc-AKIP1, expressed in HEK293 cells (protein, UniProt Q9NQ31 1-210)", "chain": "B1 chain"}},
  "key": {"[1]": {"target": "T1, Myc-AKIP1, expressed in HEK293 cells (human) (UniProt Q9NQ31)", "T1 sequence": "B1 chain", "test": "co-IP"}, "Flag-cGAS [2]": {"target": "Flag-cGAS (UniProt Q8N884)", "test": "co-IP; control pair G3BP1 and cGAS, lysate with RNase treatment (Supplementary Fig. 1e, not shown)"}, "Flag-cGAS [3]": {"target": "Flag-cGAS (UniProt Q8N884)", "test": "co-IP; control pair G3BP1 and cGAS, lysate without RNase treatment (Supplementary Fig. 1e, not shown)"}, "[4]": {"target": "endogenous CREB1 of HepG2 cells (human (endogenous in HepG2)) (UniProt P16220)", "test": "co-IP"}, "[5]": {"target": "Flag-VP35 (EBOV VP35), expressed in HEK293 cells (Ebola virus (EBOV, Zaire ebolavirus)) (UniProt Q05127)", "test": "co-IP"}, "[6]": {"target": "endogenous CREB1 of HepG2 cells (human (endogenous in HepG2)) (UniProt P16220)", "test": "co-sedimentation"}, "[7]": {"target": "endogenous CREB1 of HepG2 cells (human (endogenous in HepG2)) (UniProt P16220)", "test": "proximity ligation"}, "[8]": {"target": "L (large protein, viral RNA polymerase) of the EBOV minigenome (trVLPs) system, from pCAGGS-L (Ebola virus (EBOV, Zaire ebolavirus)) (UniProt Q05318)", "test": "proximity ligation"}, "[9]": {"target": "Flag-VP35 (EBOV VP35), expressed in HepG2 cells (Ebola virus (EBOV, Zaire ebolavirus)) (UniProt Q05127)", "test": "co-IP"}, "[10]": {"target": "VP35 of the EBOV minigenome (trVLPs) system, from pCAGGS-VP35 (Ebola virus (EBOV, Zaire ebolavirus)) (UniProt Q05127)", "test": "co-IP"}, "[11]": {"target": "GFP-VP35 (EBOV VP35), expressed in HepG2 cells (Ebola virus (EBOV, Zaire ebolavirus)) (UniProt Q05127)", "test": "proximity ligation"}, "[12]": {"target": "VP35 of the EBOV minigenome (trVLPs) system, from pCAGGS-VP35 (Ebola virus (EBOV, Zaire ebolavirus)) (UniProt Q05127)", "test": "proximity ligation"}, "[13]": {"target": "viral VP35 in HepG2 cells infected with live EBOV (strain Mayinga) (Zaire EBOV (strain Mayinga)) (UniProt Q05127)", "test": "proximity ligation"}, "[14]": {"target": "Flag-VP35 (EBOV VP35), expressed in HEK293 cells (Ebola virus (EBOV, Zaire ebolavirus)) (UniProt Q05127)", "test": "co-IP", "remark": "listed apart in the source"}, "[15]": {"target": "VP35 of Reston virus (RESTV) (Reston virus (RESTV)) (UniProt Q8JPY0)", "test": "co-IP"}},
  "note": "Like-named read-outs stand apart in the source and are kept apart here. Results are given in words; binding and its absence hold for the method and conditions named. Binding seen in cells or lysates may run through a third protein. Some results given as binding are weak or reduced against the parent protein; the word gives no strength. For some assays here: Where a sequence is shown, tags or fusion partners need not be part of it.",
  "data": [
    {"molecule": "Flag-VP35 (EBOV VP35), expressed in HEK293 cells (from UniProt Q05127 1-340)", "values": [
      {"measurement": "binding", "setting": "[1]", "result": "binds"}
    ]},
    {"molecule": "GFP-G3BP1 (from UniProt Q13283 1-466)", "values": [
      {"measurement": "binding", "setting": "Flag-cGAS [2]", "result": "no binding (condition: with RNase treatment)"},
      {"measurement": "binding", "setting": "Flag-cGAS [3]", "result": "binds"}
    ]},
    {"molecule": "L (large protein, viral RNA polymerase) of the EBOV minigenome (trVLPs) system, from pCAGGS-L (from UniProt Q05318 1-2212) (enzyme)", "values": [
      {"measurement": "binding", "setting": "[4]", "result": "binds"}
    ]},
    {"molecule": "Myc-AKIP1 C-terminal region (101-210) (from UniProt Q9NQ31 101-210) (domain or fragment)", "values": [
      {"measurement": "binding", "setting": "[5]", "result": "binds"}
    ]},
    {"molecule": "Myc-AKIP1 N-terminal region (1-100) (from UniProt Q9NQ31 1-100) (domain or fragment)", "values": [
      {"measurement": "binding", "setting": "[5]", "result": "no binding"}
    ]},
    {"molecule": "NP (nucleoprotein) of the EBOV minigenome (trVLPs) system, from pCAGGS-NP (from UniProt P18272 1-739)", "values": [
      {"measurement": "binding", "setting": "[4]", "result": "binds"},
      {"measurement": "binding", "setting": "[6]", "result": "binds"},
      {"measurement": "binding", "setting": "[7]", "result": "binds"}
    ]},
    {"molecule": "VP35 of the EBOV minigenome (trVLPs) system, from pCAGGS-VP35 (from UniProt Q05127 1-340)", "values": [
      {"measurement": "binding", "setting": "[4]", "result": "binds"},
      {"measurement": "binding", "setting": "[6]", "result": "binds"},
      {"measurement": "binding", "setting": "[8]", "result": "binds"},
      {"measurement": "binding", "setting": "[7]", "result": "binds"}
    ]},
    {"molecule": "B1", "values": [
      {"measurement": "binding", "setting": "[9]", "result": "binds"},
      {"measurement": "binding", "setting": "[10]", "result": "binds"},
      {"measurement": "binding", "setting": "[11]", "result": "binds"},
      {"measurement": "binding", "setting": "[12]", "result": "binds"},
      {"measurement": "binding", "setting": "[13]", "result": "binds"}
    ]},
    {"molecule": "B2", "values": [
      {"measurement": "binding", "setting": "[14]", "result": "binds"},
      {"measurement": "binding", "setting": "[15]", "result": "no binding"}
    ]}
  ]
}
